# In the supplement of paper PMC11417369:
# ± gives the standard deviation of the averaged measurements. Some of the results follow.
# Test system: PfAP2-LT AP2 domain (GST-tagged)
# Test: gcPBM binding intensity (ln(normalized median fluorescence intensity)); higher = stronger DNA binding
# In short: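 After 1 h on an Agilent 4 × 180k array of primer-extended double-stranded 36-bp intergenic genomic probes and negative controls, bound GST-tagged P. falciparum DNA-binding domains were detected with Alexa488 anti-GST antibody and scanned at 488 nm. The domains had been expressed in E. coli, and binding took place in 1× PBS with 1% milk, 0.2 mg/ml BSA, 0.5% salmon testes DNA and 0.03% Triton X-100. Binding intensity is the highest Masliner-normalised natural-log median intensity across replicate spots of either probe orientation.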
row,Sequence,gcPBM binding intensity (ln)
1,AAAAAAAAAAAAATAGGTACGTAAATATTTCTTTAA [XGTACX_site6423],8.47 ± 0.66
2,TATTCTTCAATTTAAAGTACAAAAATTACTATACTT [XGTACX_site6599],8.31 ± 0.4
3,AAAAAAAAAAAAAAGAGTACTTTTTTCTCATTACTA [XGTACX_site8353],8.54 ± 0.32
4,ATTGTGGCAATATATTGTACATGTAATATAAATATA [XGTACX_site5415],8.88 ± 0.47
5,AATTAAAATATATATATACACACGTAATTATATATA [CACACA_site3819],8.74 ± 0.36
6,TATAATTATATTTGGAGTACAAATTTTTTTTTTTTT [XGTACX_site7494],8.29 ± 0.46
7,AAAAAAAAAGGTAACGCATGCTTTTAGATTATATTA [TGCATGCA_site398],8.55 ± 0.45
8,AAGTATGCTTGCTACTTATTAAGTGGCAATATAATT [XGTACX_negctrl_site74],8.58 ± 0.33
9,TTTGTATAGTTGTAGGTGCATATCATTTTTAAATGT [GTGCAC_site9708],8.78 ± 0.4
10,TGTTAATAAAGGTGTACACAAAATAAAAAAAATTAT [CACACA_site4288],8.97 ± 0.58
11,TAACACTTATAAAAAAGTACTGATGAAATAATACTA [XGTACX_site7305],8.54 ± 0.45
12,AAATATATATGAAGATGTACATATATATATGTAAAT [XGTACX_site4039],9.06 ± 0.38
13,AAAAATTCCAGACACACACACACATATAAATAAATA [CACACA_site1232],9.96 ± 0.28
14,AGAACCATATATAAATGTACATGTTAATATGAATAA [XGTACX_site130],8.93 ± 0.42
15,GGACAAAAAAAAAAAATAAAATAAAAATAAATAAAT [XGTACX_negctrl_site106],8.69 ± 0.67
16,ATAACAAAATAAAACACACACACAAATGTACATATA [CACACA_site2425],9.85 ± 0.28
17,AAATAAATAATTTAATGTACATATATAATATATATA [XGTACX_site1831],8.62 ± 0.47
18,CATATACACCAACACACACACACACCCACAAAAAAA [CACACA_site496],10.1 ± 0.27
19,AATAAAAAAATAGAAACACACATTAAAAAAAATAAA [CACACA_site1333],8.94 ± 0.46
20,ATGATATATAGACACACACACATATTTATATACATT [CACACA_site6404],9.78 ± 0.37
21,CTTTTTAATAAATATACACACACAAAAAAAAAAAAA [CACACA_site9316],9.02 ± 0.4
22,TATTCAAAGAAAGACAGTACGTGTAGCAAACAACCT [XGTACX_site4218],9.11 ± 0.33
23,ACTTACTAATTAATGGGTACATACACACATATATAC [XGTACX_site1362],9.28 ± 0.45

row,Sequence,gcPBM binding intensity (ln)
1,CACTTTATACGTAATTGTACTTTTTCTTTTTTTTAT [XGTACX_site3175],8.88 ± 0.44
2,TAAATAAAGTATAATGCATGCTATTATAATATTAAT [TGCATGCA_site825],8.84 ± 0.48
3,AAATAAAATAAAATAAAATAAAATTCTTTGATACCT [TGCATGCA_negctrl_site604],8.57 ± 0.42
4,ATTTTTTTTTTTTTTTTTTTTTTTTAGATTAAGAAA [CACACA_negctrl_site1272],8.07 ± 0.47
5,TATAATTATTTTTTTCTAAATATTATAAGGTATTCA [GTGCAC_negctrl_site205],8.19 ± 0.5
6,TACATATAATATATTGCACACGTCAGAATAATATAG [CACACA_site1744],9.03 ± 0.41
7,TTTCTTTCTTCACATATATATATATATATATTTATA [TGCATGCA_negctrl_site341],8.92 ± 0.41
8,TAATAGAATATGATGGTGCAGCAGTCTTATTTTTCA,8.9 ± 0.42
9,TTTTATAATATTTAAAGTACATTCTAAAAATATAAT [XGTACX_site8033],8.19 ± 0.36
10,TTAGCCATTAATTCTCTACACACCTTTATGTTATTT [CACACA_site9212],9.01 ± 0.45
11,AAAAAGAATGTGAACACACACATTGAATCTAATTTA [CACACA_site6711],9.13 ± 0.4
12,TATTAAACGAAACACACACACACACCCATATATAAA [CACACA_site759],10.23 ± 0.099
13,GATAATTATGGACACACACACACACCCACAACTAAA [CACACA_site8824],10.2 ± 0.35
14,AGATGATATATTATATATCCTTTTAATAAATGTAAT [CACACA_negctrl_site730],8.39 ± 0.44
15,TATATAAAAAATTCAATACACACCATATATAAATAT [CACACA_site3987],8.93 ± 0.38
16,ACATATAATATATATATATATATATATATATATAAT [GTGCAC_negctrl_site648],9.28 ± 0.12
17,TATTCTAATTTTTAAACACACAAATATAAATAAGTA [CACACA_site3149],8.48 ± 0.45
18,TATTCATATTTAAAGGTGCAATATTTATTTTGTACA,8.49 ± 0.45
19,CTATTTATTATATATACATGCATATATATATTAATA [TGCATGCA_site527],8.59 ± 0.4
20,TAAAAATGTGTATGTACACACTTTATTTTTAATACA [CACACA_site7235],9.09 ± 0.3
21,TGTACAAATATGTTGAAAATAAAATTTCAATATATT [XGTACX_negctrl_site13],8.53 ± 0.53
22,ATACGAATAAATTTCGCATGCAGCATATATATCAAT [TGCATGCA_site612],8.9 ± 0.23
23,AACGAAAATAAGAAAAGTACAAAAAATACCAAATAA [XGTACX_site6171],9.02 ± 0.52

row,Sequence,gcPBM binding intensity (ln)
1,TTAATACATACATTCACACACACTAATTGTATATTT [CACACA_site9362],9.38 ± 0.42
2,ATATATATATATAATACACACTTATGAAATGTCTAA [CACACA_site5077],8.91 ± 0.39
3,TTCTTTTTTCGACACACACACACAAGAAGATATATA [CACACA_site7456],9.51 ± 0.3
4,ATATTTTTAGATTCAGAAAAAAGATTCAACTTACTC [CACACA_negctrl_site1357],8.29 ± 0.42
5,TAAATTATAAATTGCACACATATTTTTATATTTATA [CACACA_site2976],8.8 ± 0.42
6,TATTTCATATGAAGAAGTACTATTAATAATTTCCTT [XGTACX_site6587],8.44 ± 0.37
7,ATATATGCATATATATGTACATATATATATATATAT [XGTACX_site7403],9.59 ± 0.099
8,AATAAATAAAAAATTACACACATATATATAAATATA [CACACA_site3434],8.9 ± 0.47
9,ATAATATATTTAATCATACACACATTTATGTACCTA [CACACA_site1719],9.06 ± 0.45
10,AAAAATAAAGGGTGTGCACACAAAAATATATATATA [CACACA_site1727],9.7 ± 0.43
11,TTTTTTTTTAAAACATAATAAAAAATAAAACAACCT [GTGCAC_negctrl_site92],8.35 ± 0.4
12,CAAAAATAATAGAATACATGCAAAAATAAATGTATA [TGCATGCA_site196],8.96 ± 0.42
13,TTTAATTTTTAATCAGTGCAATATTATATAATATAT,8.48 ± 0.35
14,TACAATAATGATTGTTGTACATTATTGATATTTAAA [XGTACX_site2940],8.44 ± 0.43
15,AAAAAAAAACAGAAAACACACAAATTATCTTAGAAT [CACACA_site309],8.97 ± 0.47
16,TCATTTTAATTAAAAGTGCAAAAAATAATATAACTA [GTGCAC_site9968],8.51 ± 0.39
17,ATTAATTCGTTTTGTACACACATAATGAATAATTTA [CACACA_site2235],8.94 ± 0.28
18,TATATGAAATATTATGCACACAATATATAATATGAT [CACACA_site936],9.07 ± 0.38
19,AATAATTCATCATATGCACACACAATACCAAAATGT [CACACA_site7945],9.42 ± 0.33
20,ATATATATATATATATGTACATATATATTGTTGATC [XGTACX_site8893],9.73 ± 0.23
21,ACATATTATTCAAGTGCACACTTTATATTTATGATT [CACACA_site3295],9.12 ± 0.37
22,ATTTAATTCGTACATACACACGCACATATATATATA [CACACA_site8415],9.39 ± 0.11
23,TTTATTTTGTTTATGGTGCATTTTATGTAAATATAT,8.77 ± 0.33

row,Sequence,gcPBM binding intensity (ln)
1,AAAATATATTATTATTGTACATATATTTTCATTTAC [XGTACX_site4593],8.87 ± 0.47
2,TAAATATATTTATAAGCACACACTAATAAACCCACA [CACACA_site390],9.3 ± 0.3
3,AATTTTTATACGGATACACACAAAAAAAAATAAAAA [CACACA_site897],8.79 ± 0.57
4,AAGGCATATATAATTTGTACATATTAAGAATTAGAT [XGTACX_site8660],8.79 ± 0.44
5,TGAAATAAAATTATTTGTACATATCGGAAAAAAAAA [XGTACX_site7131],8.38 ± 0.49
6,TTTTTTGAAAATAAATGTACGAATTTTATATTTAAA [XGTACX_site2768],7.95 ± 0.32
7,AAGAAAATAAAAAGGTAAATATGTATAAATAAATAA [TGCATGCA_negctrl_site88],8.71 ± 0.47
8,GATACAGATGGACACACACACATACATAAATACATA [CACACA_site5833],9.96 ± 0.49
9,AAATTACCCATCCATACACACATATTTTTTTTAATT [CACACA_site2189],9.02 ± 0.32
10,AATAAATAAATAAATAAATAAATATATATATATATA [GTGCAC_negctrl_site330],9.01 ± 0.33
11,TAATGACAATAAAAATAAATAAATAAAAAAAAAAAA [TGCATGCA_negctrl_site321],8.51 ± 0.56
12,ATATATTATCTGTACACACACATATAAGGGATTATA [CACACA_site4180],9.32 ± 0.33
13,TATATACACATTTTTATACACACTTGTTTTATAAAA [CACACA_site8139],8.79 ± 0.45
14,TTATGCATATATTATGCATGTAGTTTTAAATCACAT [TGCATGCA_site104],8.68 ± 0.35
15,AAAAAATACATACATACACACATATTTATTTATATA [CACACA_site6554],9.03 ± 0.38
16,GCACAAATATATATATATATATATATATATATATAT [GTGCAC_negctrl_site661],10.2 ± 0.12
17,AAGAACCATATTTAAACACACATACCTATATAAATA [CACACA_site7553],9.02 ± 0.38
18,ATAATTATATACCATGCACACAAATATTCATACAGG [CACACA_site9343],9.18 ± 0.45
19,TACAATATAAAATACACACACACAAACATATATTTA [CACACA_site5941],9.82 ± 0.085
20,TGCCCTAACCATACTACACACACTGCTCAAAATAGT [CACACA_site2219],9.42 ± 0.33
